Laboratory results from article PMC2584773.
Results are given in words; binding and its absence hold for the method and conditions named. Some entries that bind do so weakly or less than the wild type.

The chains behind the UniProt entries cited, without tags or fusion partners. Where a name states a change or a piece, a line headed by the entry shows the natural chain unless it says otherwise. A line that says so, or that is headed by a name, gives the form on record, which may keep a tag or linker. Residues count along the entry.
homeo-Prospero domain (HDPD) of human Prox1, amino acids 547-737, fused to the Gal4 DNA binding domain (Q92786, residues 547-737): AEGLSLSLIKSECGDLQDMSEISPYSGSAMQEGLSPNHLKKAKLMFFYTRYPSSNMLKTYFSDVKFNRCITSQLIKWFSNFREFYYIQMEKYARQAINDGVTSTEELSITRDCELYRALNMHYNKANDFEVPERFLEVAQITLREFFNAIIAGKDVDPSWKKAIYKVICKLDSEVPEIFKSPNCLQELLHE
homeodomain (HD) of human Prox1, amino acids 547-642, fused to the Gal4 DNA binding domain (Q92786, residues 547-642): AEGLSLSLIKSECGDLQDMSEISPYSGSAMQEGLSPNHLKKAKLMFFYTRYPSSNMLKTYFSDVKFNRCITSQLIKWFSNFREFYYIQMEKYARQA
Prospero domain (PD) of human Prox1, amino acids 638-737, fused to the Gal4 DNA binding domain (Q92786, residues 638-737): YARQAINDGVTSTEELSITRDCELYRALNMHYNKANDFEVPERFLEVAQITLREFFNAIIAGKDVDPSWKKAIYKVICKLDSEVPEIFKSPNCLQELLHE
Prox1 homeo-Prospero domain PIP box mutant LFF (Q92786, form named): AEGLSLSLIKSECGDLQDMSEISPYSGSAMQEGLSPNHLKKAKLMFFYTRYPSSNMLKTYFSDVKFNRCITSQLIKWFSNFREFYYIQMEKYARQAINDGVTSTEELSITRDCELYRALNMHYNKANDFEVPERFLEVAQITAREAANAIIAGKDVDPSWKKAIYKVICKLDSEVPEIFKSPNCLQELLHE
UniProt P17918: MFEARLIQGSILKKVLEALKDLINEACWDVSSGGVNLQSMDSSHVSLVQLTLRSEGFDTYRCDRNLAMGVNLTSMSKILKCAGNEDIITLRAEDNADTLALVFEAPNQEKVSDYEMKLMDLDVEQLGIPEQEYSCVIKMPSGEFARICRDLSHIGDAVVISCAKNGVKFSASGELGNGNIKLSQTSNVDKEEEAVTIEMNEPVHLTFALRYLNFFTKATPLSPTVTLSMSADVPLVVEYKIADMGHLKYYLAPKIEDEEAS

What was measured:
[1] = molecular target: homeo-Prospero domain (HDPD) of human Prox1, amino acids 547-737, fused to the Gal4 DNA binding domain (human) (UniProt Q92786); test: two-hybrid; mating of AH109 (Gal4 DNA-binding domain-Prox1 bait) with Y187 (Gal4 activation domain-PCNA prey); colonies from DO plates restreaked on high stringency quadruple drop out (QDO) plates with X-alpha-Gal; growth and blue colour
[2] = molecular target: Prox1 homeo-Prospero domain PIP box mutant LFF (human) (UniProt Q92786); test: as above
[3] = molecular target: homeo-Prospero domain (HDPD) of human Prox1, amino acids 547-737, fused to the Gal4 DNA binding domain (human) (UniProt Q92786); test: two-hybrid; relative strength of the interaction by beta-galactosidase assay with ONPG as substrate on QDO liquid cultures of the mated yeast
[4] = molecular target: homeo-Prospero domain (HDPD) of human Prox1, amino acids 547-737, fused to the Gal4 DNA binding domain (human) (UniProt Q92786); test: two-hybrid; screen of an 11 dpc mouse embryo cDNA library (pACT2, Y187) with pGBKT7-Prox1 HDPD in AH109; SD/-Leu/-His/-Ade/-Trp with X-alpha-Gal, Matchmaker 3 high stringency protocol
[5] = molecular target: Prospero domain (PD) of human Prox1, amino acids 638-737, fused to the Gal4 DNA binding domain (human) (UniProt Q92786); test: two-hybrid; mating of AH109 (Gal4 DNA-binding domain-Prox1 bait) with Y187 (Gal4 activation domain-PCNA prey); colonies from DO plates restreaked on high stringency quadruple drop out (QDO) plates with X-alpha-Gal; growth and blue colour
[6] = molecular target: homeodomain (HD) of human Prox1, amino acids 547-642, fused to the Gal4 DNA binding domain (human) (UniProt Q92786); test: as above

binding [1] | binding [2] | binding [3] | binding [4] | binding [5] | binding [6] | Substance
binds |  |  |  |  |  | PCNA N+ fragment (amino acids 1-135), amino-terminal domain one plus the IDCL, fused to the Gal4 activation domain (from UniProt P17918 1-135) (domain or fragment)
binds | no binding | binds |  |  |  | PCNA C+ fragment (amino acids 115-261), carboxyl-terminal domain 2 plus the IDCL, fused to the Gal4 activation domain (from UniProt P17918 115-261) (domain or fragment)
binds | no binding | binds | binds | no binding | no binding | carboxyl-terminus of PCNA (amino acids 167-261), original clone isolated from the library, fused to the Gal4 activation domain (from UniProt P17918 167-261) (domain or fragment)
binds |  | binds |  |  |  | PCNA C- fragment (amino acids 135-261), lacking the IDCL, fused to the Gal4 activation domain (from UniProt P17918 135-261) (domain or fragment)
